In PubChem BioAssay AID1625 (Sanford-Burnham Center for Chemical Genomics, 2009):
This is one part of the list. The main result of the screen is listed elsewhere. These columns were measured beside it and carry no call. The list favours compounds with an active or inconclusive main result.

Experiment: insulin promoter activators in MIN6 cells, imaging, high-content screening, mouse beta cells (AID 1625);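 further: total cells summed across four imaged fields per well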
Conditions: MIN6 insulin promoter-GFP reporter, measured here: cytotoxicity, nuclei count, at 5 µM

SMILES | cell count
Oc1ccc(/C=N/Nc2ccnc3cc(Cl)ccc23)c(O)c1 | 1010 cells
COc1ccc2cc(CCNC(=O)c3c(-c4ccccc4Cl)noc3C)c(=O)[nH]c2c1 | 420 cells
CCN(CC)c1ccc(NC2=C(Cl)C(=O)c3ccccc3C2=O)cc1 | 286 cells
O=C(N/N=C/C(Br)=C\c1ccccc1)c1n[nH]c2c1CCC2 | 421 cells
CN(C)CCCCNCCCNC(=O)/C=N\O | 453 cells
COc1ccccc1CNC(=O)C1=C(C)C(=O)OC12CCC(C)CC2 (stereo unspecified) | 460 cells
O=C(NC(Nc1nc2ccc([N+](=O)[O-])cc2s1)(C(F)(F)F)C(F)(F)F)c1ccccc1Cl | 458 cells
COc1ccc(C2CC(c3ccccc3)=NN2c2ccc(S(N)(=O)=O)cc2)cc1 (stereo unspecified) | 489 cells
Cc1ccc(-n2c(C)cc(C(=O)CSc3nncs3)c2C)cc1 | 442 cells
O=[N+]([O-])c1ccc(N/N=C/c2ccc[nH]2)cc1 | 689 cells
O=C(NCc1ccco1)c1ccc(=O)[nH]n1 | 464 cells
O=C(C1CCCCN1S(=O)(=O)c1ccccc1)N1CCN(C(c2ccccc2)c2ccccc2)CC1 (stereo unspecified) | 356 cells
c1ccc2c(c1)OC(CCCN1CCCCC1)c1ccccc1S2 (stereo unspecified) | 499 cells
CCCOc1cc(N(CC)CC)ccc1/C=C(/C#N)c1nc2ccc(C)cc2[nH]1 | 1050 cells
O=C(Oc1cccc2cccnc12)c1ccco1 | 486 cells
O=C(Cc1c(F)cccc1Cl)Nc1ccncc1 | 381 cells

SMILES | cell count
O=C(NC1(C(F)(F)F)NC(=O)N(c2ccc(F)c(Cl)c2)C1=O)c1ccncc1 (stereo unspecified) | 1500 cells
O=C(NCc1ccc(F)cc1)C1CCCN(S(=O)(=O)c2cccnc2)C1 (stereo unspecified) | 1210 cells
O=C1c2ccccc2C(O)(Cc2ccccc2)N1C1CCCCC1 (stereo unspecified) | 471 cells
COc1cc2c3nnc(-c4ccccc4)c-3cn(Cc3ccccc3F)c2cc1OC | 954 cells
COc1ccc(C)cc1NC(=O)COC(C)=O | 844 cells
CCc1c(C)nc2ncnn2c1NCCc1ccc(OC)cc1 | 271 cells
CN1C=CC2=C(C#N)C(N)C(C#N)(C#N)C(c3ccccc3)C2C1 (stereo unspecified) | 1770 cells
O=c1c(Br)c(Br)cnn1-c1ccccc1 | 435 cells
O=c1[nH]c2ccccc2nc1/C=C/c1ccc(F)cc1 | 1380 cells
COc1ccccc1CC(=O)NC1CC(C)(C)NC(C)(C)C1 | 1050 cells
CCN1CCc2c(sc(NC(=O)Nc3ccc(Cl)c(Cl)c3)c2C(N)=O)C1 | 1100 cells
COc1ccc(C2=NC(=O)/C(=C\c3cc(OC)c(OC)c(OC)c3)O2)cc1 | 1220 cells
Cc1ccc(CNc2nc(C)nc3sc4c(c23)CCC4)cc1 | 406 cells
C=CCn1c(-c2oc3nc(-c4ccccc4)cc(-c4ccccc4)c3c2N)n[nH]c1=S | 852 cells
COCC(=O)O[C@]1(CCN(C)CCCc2nc3ccccc3[nH]2)CCc2cc(F)ccc2[C@@H]1C(C)C | 420 cells
